Hit rate of the full screen: of about 310,000 compounds, about 18,000 (5.8%) were called active. Inconclusive means that the source gave no clear call. Such entries were picked first, then a sample of the others. Calls follow the shape of the dose curve; as a rule, active = well fitted inhibition curve with a large enough effect; inconclusive = small, poorly fitted or top-dose-only effect, or another doubt; inactive = no such curve, though single readings can be large or run the other way. Potencies of inconclusive entries are left out as doubtful fits.
Experiment: Primary qHTS for delayed death inhibitors of the malarial parasite plastid, 48 hour incubation
Settings: P. falciparum luciferase growth in erythrocytes; series mostly up to 28.7 µM; activity change, negative = inhibition: at the top concentration
Outline: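 Compounds are pin-transferred into medium, infected erythrocytes (2% hematocrit, 0.1% parasitemia final) are added, and plates sit one parasite generation at 37 C in 5% CO2. Detection reagent is then added and luminescence measured.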
% is scaled to controls: 0 for no effect and ±100 for the full control effect; potency is read from the fitted curve at half-maximal effect; tags tell the direction and shape of the fitted curve.

SMILES	Potency	activity change, negative = inhibition
Cn1c(S(=O)(=O)Cc2ccc(Cl)cc2)nc2ccccc21	inconclusive [inhibitor, single point]	
CCc1nnc(NC(=O)CN2CC(C)OC(C)C2)s1 (configuration not stated)		inactive: -7.57%
CC(=O)N1CCc2c(sc3c2c(=O)n(Cc2ccccc2)c(=O)n3CC(=O)NCC2CCCO2)C1 (configuration not stated)	active: 0.37 µM	
Cc1ccc(C(=O)NCC(=O)OC(C)C(=O)Nc2ccc(N(C)C)cc2)s1 (configuration not stated)		inactive: 17.5%
COc1ccccc1CC(=O)O/N=C(\N)Cc1cccc2ccccc12	active: 5.86 µM	
COC(=O)c1cccc(NC(=O)CCCN2C(=O)NC3(CCCC3)C2=O)c1	inconclusive [inhibitor, single point]	
Cc1ccccc1NC(=O)CSc1nnc(-c2ccco2)c(-c2ccco2)n1	inconclusive [inhibitor, full curve]	
COC(=O)C1=C(C(=O)OC)[C@@H]2N(C)c3ccccc3[C@@]23C[C@@H](C(=O)OC)N(C(=O)CC(C)C)C3=N1	inconclusive [inhibitor, single point]	
CC(C)(C)OC(=O)N1Cc2ccccc2C[C@H]1C(=O)NCC(=O)Nc1ccc2c(c1)OCCO2		inactive: 73.6%
O=C(Cc1c(F)cccc1Cl)Nc1ccc(S(=O)(=O)Nc2nccs2)cc1	inconclusive [inhibitor, partial curve, poor fit]	
O=C(C1CCN(S(=O)(=O)c2ccc(Br)s2)CC1)N1CCN(C2CCCCC2)CC1	inconclusive [inhibitor, partial curve, poor fit]	
O=C(CSc1ncnc2sccc12)Nc1ccc(S(=O)(=O)N2CCOCC2)cc1	inconclusive [inhibitor, partial curve]	
Nc1ccc(Br)c[n+]1Cc1cccc2cccnc12	inconclusive [inhibitor, partial curve]	
CC(C)(C)c1ccc(Cn2nnc3c(=O)[nH]c(C4CCCN(C(=O)Cc5cccs5)C4)nc32)cc1 (configuration not stated)	inconclusive [inhibitor, partial curve, poor fit]	
Cc1ccsc1C(=O)N(CC(C)C)c1c(N)n(Cc2ccccc2)c(=O)[nH]c1=O	inconclusive [inhibitor, partial curve, poor fit]	
Cc1ccc(NC(=O)N(CCCN2CCOCC2)Cc2cc3cc4c(cc3[nH]c2=O)OCO4)cc1	active: 0.928 µM	
COc1ccc(Cn2c3nc4ccccc4nc3c3c(=O)n(Cc4ccco4)c(C)nc32)cc1	inconclusive [inhibitor, single point]	
CC(C)CCNC(=O)C(CC(C)C)N(Cc1ccc2c(c1)OCO2)C(=O)c1snc(C(N)=O)c1N (configuration not stated)	inconclusive [inhibitor, single point]	
Cc1ccc2c(COn3nnc4ccc(S(=O)(=O)N(C)C)cc43)cc(=O)oc2c1C		inactive: 4.46%
Clc1ccc(OCc2nnc(SCc3nnc(-c4ccccc4)o3)o2)c(Cl)c1		inactive: 26.5%
COc1cc2[nH]c(=S)n(C3CCCC3)c(=O)c2cc1OC	inconclusive [inhibitor, single point]	
O=C(COc1ccccc1[N+](=O)[O-])Nc1ccc(N2CCN(C(=O)c3cccs3)CC2)cc1	active: 10.4 µM	
O=C(C1CCN(S(=O)(=O)c2ccc(Cl)cc2)CC1)N1CCC1	inconclusive [inhibitor, full curve]	
COC(=O)CNc1cc(S(=O)(=O)N2CCCCC2)ccc1Oc1ccc(C(=O)OC)cc1	inconclusive [inhibitor, single point]	

SMILES	Potency	activity change, negative = inhibition
CCn1c(SCC(=O)NC(=O)c2ccccc2OC)nc2ccccc21		inactive: 28.7%
O=C(Cc1ccccc1F)Nc1ccc(S(=O)(=O)Nc2ncccn2)cc1		inactive: 4.99%
CN(Cc1cn(C)c2ccccc12)C(=S)Nc1cc(F)cc(F)c1	active: 11.7 µM	
Cc1cccc(S(=O)(=O)Nc2ccc(-c3nc4ccc(C)cc4s3)cc2)c1		inactive: 285%
O=C(COc1cccc2ccccc12)N1c2ccccc2CCc2ccccc21	active: 10.4 µM	
COc1ccc(N(C)C(=O)Cc2c(C(=O)O)[nH]c3ccccc23)c(OC)c1	inconclusive [inhibitor, partial curve, poor fit]	
O=C(NCc1ccc(F)cc1)C(c1ccccc1)N(CC1CCCO1)C(=O)Cn1nnc2ccccc21 (configuration not stated)	active: 8.28 µM	
N#CCCSc1ccccc1NC(=O)c1ccc(S(=O)(=O)N2CCCC2)cc1	inconclusive [inhibitor, partial curve]	
O=C1CC(NS(=O)(=O)c2ccc([N+](=O)[O-])cc2)CN1c1cccc(F)c1 (configuration not stated)	inconclusive [inhibitor, partial curve, poor fit]	
C=CCn1c(-c2cccnc2Cl)nc2ccccc21	inconclusive [inhibitor, full curve, poor fit]	
CCOc1cc(C(c2c(C)[nH][nH]c2=O)c2c(C)[nH][nH]c2=O)cc([N+](=O)[O-])c1O		inactive: -15.5%
Cc1cc(NC(=O)CCl)nn1C	inconclusive [inhibitor, full curve]	
CCOC(=O)C1CC=C(Cl)CC1C(=O)Nc1nccs1 (configuration not stated)		inactive: 24.4%
O=C(CNC(=O)c1cccs1)Nc1cccc(S(=O)(=O)N2CCOCC2)c1		inactive: -22.1%
Cc1nc2ccccc2nc(C)c1=NOCC(=O)N(c1ccccc1)C(C)C		inactive: 0%
Cc1cc(C)c2nc(NC(=O)C3CC(=O)N(Cc4ccco4)C3)sc2c1 (configuration not stated)		inactive: 18.8%
Cc1cc(C)cc(N2C(=O)/C(=C\c3ccc(N4CCN(C)CC4)o3)C(=O)NC2=S)c1	inconclusive [inhibitor, single point]	
CCOc1ccc(CCNC(=O)CSc2ncn[nH]2)cc1OCC		inactive: 7.64%
CCc1noc(C)c1C(=O)OC(C)C(=O)c1c(C)[nH]c2ccccc12 (configuration not stated)	inconclusive [inhibitor, single point]	
COc1ccc(C=NCCCN2CCOCC2)cc1	inconclusive [inhibitor, single point]	
COc1ccc(NC(=O)N2CCN(C(=O)C3CCCO3)CC2)cc1 (configuration not stated)		inactive: 61%
CC1CCCN(Cc2c(O)ccc3c4c(c(=O)oc23)CCCC4)C1 (configuration not stated)	active: 1.31 µM	
CCc1ccc(Nc2cc(C)nc3nc(C)nn23)cc1	active: 1.31 µM	
COc1ccc(NC(=O)C2CCC(CNS(=O)(=O)c3cccs3)CC2)cc1OC (configuration not stated)	inconclusive [inhibitor, full curve]	

SMILES	Potency	activity change, negative = inhibition
COc1ccc(Cl)c(NC(=O)NCCN2CCN(c3ccccc3)CC2)c1	inconclusive [inhibitor, partial curve, poor fit]	
Cc1cc(C)c(NC(=O)c2ccccc2C(=O)c2ccccc2)c(C)c1	inconclusive [inhibitor, partial curve, poor fit]	
Cc1ccc(C)c(N2CCN(S(=O)(=O)c3csc(C(N)=O)c3)CC2)c1		inactive: 18.7%
COc1cc(Cl)ccc1OCc1cc(C(=O)N(C)C2CCOC2)no1 (configuration not stated)		inactive: 9.49%
Cc1ccc2oc(-c3ccc(C)c(NC(=S)NC(=O)c4cccs4)c3)nc2c1		inactive: 255%
O=C(COC(=O)CCC1CCCC1)Nc1cc(S(=O)(=O)N2CCOCC2)ccc1Cl	inconclusive [inhibitor, single point]	
CC(C)N(C(=O)CSc1nnc(NC(=O)c2cccs2)s1)C(C)C	inconclusive [inhibitor, single point]	
COc1cccc(NC(=O)C2CCN(S(C)(=O)=O)CC2)c1		inactive: -22.2%
OC(CN1CCC(Cc2ccc(F)cc2)CC1)c1ccc(Cl)cc1 (configuration not stated)	active: 1.51 µM	
O=C1CCCN1CCCNc1nc2c(S(=O)(=O)c3ccc(Br)cc3)nnn2c2ccccc12	inconclusive [inhibitor, partial curve, poor fit]	
CC1CCCC(C)N1/N=C/c1ccc(O)cc1 (configuration not stated)		inactive: -26.4%
COc1ccc(C(NC(=O)c2cccnc2)c2cc(Cl)c3cccnc3c2O)cc1OC (configuration not stated)	inconclusive [inhibitor, full curve, poor fit]	
CC(C)NC[C@@H](O)c1ccc(O)c(O)c1		inactive: -14.6%
COc1ccccc1NC(=O)CNC(c1ccccc1)c1ccccc1	inconclusive [inhibitor, partial curve]	
O=C(Nc1ccc(Cl)cc1)C1C2C=CC3(O2)C1C(=O)N(CCN1CCCCC1)C3C(=O)NC1CCCCC1 (configuration not stated)	inconclusive [inhibitor, single point]	
CC(C)(O)C#Cc1ccc(CN2CCN(Cc3ccsc3)C(CCO)C2)s1 (configuration not stated)		inactive: -4.46%
COC(=O)c1ccc(CSc2nnc(CS(=O)Cc3ccc(Br)cc3)n2-c2ccccc2)cc1 (configuration not stated)	inconclusive [inhibitor, single point]	
CC1CCN(S(=O)(=O)c2cc(Br)cc(C(=O)NC3=NCCS3)c2)CC1	inconclusive [inhibitor, full curve]	
COC(=O)C1=CN(Cc2cccs2)C=C(C(=O)OC)C1c1cccc(Cl)c1	active: 9.28 µM	
Cc1ccccc1CN1CCN(Cc2ccc3cccc(F)c3n2)CC1CCO (configuration not stated)		inactive: 5.4%
COc1cc(C(=O)OC(C)C(=O)N2CCCC2)cc2c1OCCO2 (configuration not stated)	inconclusive [inhibitor, single point]	
CC(=O)Nc1ccc(NC(=O)C(C)OC(=O)c2ccc3ccccc3n2)cc1 (configuration not stated)		inactive: -13.7%
Cc1onc(-c2ccccc2Cl)c1C(=O)NCCn1c(C)cc2ccccc21	active: 13.1 µM	
COc1ccc(CNC(=O)CN(C)Cc2ccc(C(C)(C)C)cc2)cc1	inconclusive [inhibitor, single point]	

From PubChem BioAssay AID504832 (National Center for Advancing Translational Sciences (NCATS), 2011)
